The supplement of paper PMC3334620
The full ranking holds about 33,000 sequences; the median of “E-score (-0.5 to 0.5)” is about -0.017, and the highest 2% start at about 0.3. Some of the results follow.

What follows are sequences tested against T1, Sut1 (UniProt P53032) (assay: PBM E-score (8-mer binding enrichment) (E-score (-0.5 to 0.5)); higher = stronger / more preferred TF binding; most listed sequences are background and not binding sites). Conditions: protein concentration: 200 nM; construct: GST-full length.
T1 sequence: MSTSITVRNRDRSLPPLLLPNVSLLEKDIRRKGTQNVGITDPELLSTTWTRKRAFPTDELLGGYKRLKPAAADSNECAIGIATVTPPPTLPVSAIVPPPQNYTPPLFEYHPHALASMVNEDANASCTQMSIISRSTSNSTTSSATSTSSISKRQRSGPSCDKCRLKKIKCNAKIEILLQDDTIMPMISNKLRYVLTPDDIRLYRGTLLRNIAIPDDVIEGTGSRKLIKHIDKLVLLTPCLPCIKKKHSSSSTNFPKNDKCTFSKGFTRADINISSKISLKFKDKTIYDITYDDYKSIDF
Summary of the method: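 Full-length yeast transcription factors or their DNA-binding domains, GST-tagged and expressed with PURExpress, were applied at about 100-200 nM to universal all-10-mer Agilent arrays. These arrays had been made double-stranded by primer extension on fresh or once-stripped slides. Detection used fluorescent anti-GST, normalisation used masliner, and E-scores for ungapped eight-base words pooled with reverse complements came from the Universal PBM Analysis Suite.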

First: GCGAACAA
Second: ACTGGCCC
The “PBM E-score” value of the first is higher: 0.138 for the first, -0.186 for the second.

Compared with AATGTGGG, CCAGGGGG is lower in “PBM E-score” value: 0.0376 for the first, -0.424 for the second.

Compared with CCGGGGTA, AACAGGGC is lower in “PBM E-score” value: 0.296 for the first, -0.0802 for the second.

Compared with AAGAGACA, ACCGCCCA is lower in “PBM E-score” value: 0.205 for the first, -0.115 for the second.

Going from GCGTCTCA to TTACCGAA, the “PBM E-score” value rises from -0.223 to 0.263.

First: ACCTACTA
Second: CTATCACA
The “PBM E-score” value of the first is higher: 0.0679 for the first, 0.0316 for the second.

First: GCTTACCA
Second: ACTGTGAG
The “PBM E-score” value of the first is higher: -0.0165 for the first, -0.0765 for the second.

Compared with ATAGGATC, ATTATGCG is higher in “PBM E-score” value: -0.0239 for the first, 0.244 for the second.

First: TGATATCA
Second: AGCATTCC
The “PBM E-score” value of the first is higher: 0.129 for the first, -0.0595 for the second.

First: CAAACCTA
Second: CAACATAG
The “PBM E-score” value of the first is higher: 0.135 for the first, -0.0276 for the second.

First: CTTTTTTA
Second: GCGATGTA
The “PBM E-score” value of the first is higher: 0.258 for the first, 0.0361 for the second.

First: AATCAGTA
Second: AATGCTTC
The “PBM E-score” value of the first is lower: -0.0139 for the first, 0.153 for the second.

Compared with AGTCTGTG, GGACGTGA is lower in “PBM E-score” value: -0.24 for the first, -0.306 for the second.

Compared with ACCTCTGC, AGTACCAG is higher in “PBM E-score” value: -0.199 for the first, -0.175 for the second.

Compared with GAGTAAAC, AGCTCGGG is lower in “PBM E-score” value: 0.161 for the first, 0.111 for the second.

Going from GTTAGAAC to ATTACGTA, the “PBM E-score” value rises from 0.112 to 0.136.

First: TCAACCAA
Second: AATGAGAC
The “PBM E-score” value of the first is higher: -0.00475 for the first, -0.0272 for the second.

First: GTGGTTCA
Second: TGATGTAA
The “PBM E-score” value of the first is lower: 0.0643 for the first, 0.208 for the second.

First: ACCTTGAT
Second: CTTTGGCC
The “PBM E-score” value of the first is lower: 0.0485 for the first, 0.144 for the second.

Compared with CGTTTGGA, CACTACAC is lower in “PBM E-score” value: -0.0577 for the first, -0.134 for the second.

Going from TAACCGGA to AAGCTGCG, the “PBM E-score” value falls from 0.332 to -0.291.

Going from CGGGCATA to ACTGAAAG, the “PBM E-score” value rises from -0.16 to 0.143.

First: GGTGTCCA
Second: CCAGCGTA
The “PBM E-score” value of the first is higher: -0.00701 for the first, -0.042 for the second.

Going from CCCTTGGA to GCGTTTCA, the “PBM E-score” value rises from -0.12 to -0.051.

Going from CGTTACAC to ATTACACC, the “PBM E-score” value rises from -0.0419 to 0.116.

First: CTACGCAC
Second: CATCTGAC
The “PBM E-score” value of the first is higher: -0.113 for the first, -0.163 for the second.

Compared with CTACTTAC, AACTATCC is lower in “PBM E-score” value: 0.0799 for the first, 0.00647 for the second.

Going from AACAATTA to GGTGGGAC, the “PBM E-score” value falls from 0.292 to -0.226.

Going from GCCGAACC to AATTCTGT, the “PBM E-score” value rises from -0.00119 to 0.184.

First: AGCTATGC
Second: CAATGGCA
The “PBM E-score” value of the first is lower: -0.227 for the first, 0.0358 for the second.

Going from AGCCGGGG to CACATAGC, the “PBM E-score” value rises from -0.116 to -0.00421.

Compared with CCAGTACC, GAGTAGTA is higher in “PBM E-score” value: -0.034 for the first, 0.0911 for the second.

First: CCTACCCG
Second: AATCCGCG
The “PBM E-score” value of the first is lower: -0.139 for the first, -0.103 for the second.

First: ATGGCGCA
Second: CGATCGAA
The “PBM E-score” value of the first is lower: -0.056 for the first, 0.127 for the second.

First: ACTATTTA
Second: GTGTTTGA
The “PBM E-score” value of the first is higher: 0.246 for the first, 0.156 for the second.

Compared with ACACTGAT, TATTTGCA is higher in “PBM E-score” value: -0.0703 for the first, 0.0534 for the second.

First: TGTCCACA
Second: CCCAGTTC
The “PBM E-score” value of the first is higher: 0.185 for the first, -0.0702 for the second.

Going from GGAGCCGA to AAGTATTG, the “PBM E-score” value rises from -0.123 to 0.0899.

Compared with CAGCACTA, GCTCCGAA is higher in “PBM E-score” value: -0.0228 for the first, 0.439 for the second.

Compared with AGTATTCC, AATCTTCA is higher in “PBM E-score” value: 0.128 for the first, 0.204 for the second.

Compared with AGGAAGCC, CGACCCAC is higher in “PBM E-score” value: -0.168 for the first, 0.0372 for the second.

Compared with GAACGGAC, AAGCATTG is lower in “PBM E-score” value: 0.29 for the first, -0.114 for the second.

Going from GTGGAGCA to AAGGGTAC, the “PBM E-score” value rises from -0.132 to -0.11.

Going from AACAAGTG to AGGAGATC, the “PBM E-score” value falls from 0.0425 to 0.0207.

Going from AGCCTTAA to GGTTAGCA, the “PBM E-score” value falls from 0.0763 to -0.0644.

Compared with GGCATCCA, CCGAGGTA is higher in “PBM E-score” value: -0.256 for the first, -0.112 for the second.

Going from GAATTCAA to AAAAATGC, the “PBM E-score” value falls from 0.272 to 0.149.

Going from GAAGCTTC to CTTGCCGC, the “PBM E-score” value falls from -0.123 to -0.242.

Going from CTATTCGA to AGATGCAC, the “PBM E-score” value falls from -0.00526 to -0.0648.

Compared with CAAAGTCA, CTAATTAA is lower in “PBM E-score” value: 0.0849 for the first, 0.0567 for the second.

Compared with ACAAACCC, CACCGGAG is higher in “PBM E-score” value: -0.0391 for the first, 0.437 for the second.

First: AGGGGAGC
Second: AACAATAT
The “PBM E-score” value of the first is lower: -0.291 for the first, 0.331 for the second.

Compared with GGACGGCC, TACGCCCA is higher in “PBM E-score” value: -0.285 for the first, -0.0717 for the second.

Going from CATCCTTC to CGGTATAG, the “PBM E-score” value rises from -0.0679 to -0.0612.

Compared with CTTAATGC, AAACGGTG is higher in “PBM E-score” value: -0.0825 for the first, 0.0222 for the second.

First: AAACAATT
Second: CATACAAC
The “PBM E-score” value of the first is higher: 0.2 for the first, 0.0999 for the second.

Going from CCCCTCAG to AACCTGGA, the “PBM E-score” value rises from -0.38 to 0.0664.

First: CTCCTACA
Second: CCGGATTC
The “PBM E-score” value of the first is lower: -0.00847 for the first, 0.106 for the second.

Compared with AGCTTCCC, AACCACTT is higher in “PBM E-score” value: -0.182 for the first, 0.0795 for the second.

Going from TGCTACAA to AAGTCTAA, the “PBM E-score” value falls from 0.157 to 0.00927.

Going from TCTCATAA to TGTAGAAA, the “PBM E-score” value falls from 0.118 to -0.0101.

Compared with CGGGTCGC, TAGGTAAA is higher in “PBM E-score” value: -0.0987 for the first, 0.102 for the second.

First: CAATTTAG
Second: CCTTCGCC
The “PBM E-score” value of the first is higher: 0.181 for the first, -0.108 for the second.

Compared with ATGCTCAC, ACATCTCC is higher in “PBM E-score” value: -0.0432 for the first, 0.247 for the second.

First: ATTCGCGG
Second: ATTCCAAG
The “PBM E-score” value of the first is higher: 0.118 for the first, 0.0681 for the second.

First: ATGTCCCA
Second: GGATGCTA
The “PBM E-score” value of the first is higher: -0.178 for the first, -0.228 for the second.

Compared with ATGTGGTC, TAAGTGCA is higher in “PBM E-score” value: -0.0655 for the first, 0.106 for the second.

Compared with AATCATAA, ACCCAAAT is lower in “PBM E-score” value: 0.173 for the first, 0.00677 for the second.

Going from GATAGGGA to AGACACTA, the “PBM E-score” value rises from -0.0268 to 0.096.

First: CCGCTACC
Second: GAGAAAGC
The “PBM E-score” value of the first is lower: -0.0517 for the first, 0.0266 for the second.

Compared with CCAGTTGA, GATAGATC is higher in “PBM E-score” value: -0.0814 for the first, -0.0376 for the second.

First: AACCACGT
Second: ACTCCTGA
The “PBM E-score” value of the first is lower: -0.105 for the first, -0.0782 for the second.

Going from TACCTGCA to ACCCCGCT, the “PBM E-score” value rises from -0.0977 to 0.107.

First: CACTCGGA
Second: GACGCGTA
The “PBM E-score” value of the first is higher: 0.266 for the first, -0.0416 for the second.

Compared with GCTGATTA, AGAAACGG is lower in “PBM E-score” value: 0.0833 for the first, 0.0547 for the second.

Going from CATACTAC to GGTAACAA, the “PBM E-score” value rises from -0.00109 to 0.28.

Going from AGTACACG to AAAATTCT, the “PBM E-score” value rises from -0.0194 to 0.176.

First: GAAATCAC
Second: CGGGGATC
The “PBM E-score” value of the first is higher: 0.185 for the first, 0.113 for the second.

Going from CTGTTCCC to CAGCTCGA, the “PBM E-score” value rises from -0.254 to -0.115.

Compared with AAGTTGTC, AGTCGCCG is lower in “PBM E-score” value: 0.0732 for the first, 0.00025 for the second.

First: AAGTTGTG
Second: CACACGAC
The “PBM E-score” value of the first is higher: -0.0718 for the first, -0.182 for the second.

Going from AACAAATA to ATTACACG, the “PBM E-score” value falls from 0.201 to -0.00445.

Going from AGGCTTAC to AAAAACGT, the “PBM E-score” value falls from 0.138 to 0.0839.

Going from CGGCATAC to CCGGACTA, the “PBM E-score” value rises from 0.056 to 0.48.

Going from TCCCACGA to GCTAGGTA, the “PBM E-score” value falls from -0.0703 to -0.0966.

Compared with AGGGTAAG, AGATGAAT is higher in “PBM E-score” value: -0.165 for the first, -0.0353 for the second.
